Data from the supplement of paper PMC3334620.
In all, about 33,000 sequences were measured (“E-score (-0.5 to 0.5)”: median about -0.021, highest 2% from about 0.32 on). The list shows a part of the results.

molecular target: T1, Zap1 (UniProt P47043); assay: PBM E-score (8-mer binding enrichment) (E-score (-0.5 to 0.5)); higher = stronger / more preferred TF binding; most listed sequences are background and not binding sites; conditions: protein concentration: 200 nM; construct: GST-full length
T1 sequence: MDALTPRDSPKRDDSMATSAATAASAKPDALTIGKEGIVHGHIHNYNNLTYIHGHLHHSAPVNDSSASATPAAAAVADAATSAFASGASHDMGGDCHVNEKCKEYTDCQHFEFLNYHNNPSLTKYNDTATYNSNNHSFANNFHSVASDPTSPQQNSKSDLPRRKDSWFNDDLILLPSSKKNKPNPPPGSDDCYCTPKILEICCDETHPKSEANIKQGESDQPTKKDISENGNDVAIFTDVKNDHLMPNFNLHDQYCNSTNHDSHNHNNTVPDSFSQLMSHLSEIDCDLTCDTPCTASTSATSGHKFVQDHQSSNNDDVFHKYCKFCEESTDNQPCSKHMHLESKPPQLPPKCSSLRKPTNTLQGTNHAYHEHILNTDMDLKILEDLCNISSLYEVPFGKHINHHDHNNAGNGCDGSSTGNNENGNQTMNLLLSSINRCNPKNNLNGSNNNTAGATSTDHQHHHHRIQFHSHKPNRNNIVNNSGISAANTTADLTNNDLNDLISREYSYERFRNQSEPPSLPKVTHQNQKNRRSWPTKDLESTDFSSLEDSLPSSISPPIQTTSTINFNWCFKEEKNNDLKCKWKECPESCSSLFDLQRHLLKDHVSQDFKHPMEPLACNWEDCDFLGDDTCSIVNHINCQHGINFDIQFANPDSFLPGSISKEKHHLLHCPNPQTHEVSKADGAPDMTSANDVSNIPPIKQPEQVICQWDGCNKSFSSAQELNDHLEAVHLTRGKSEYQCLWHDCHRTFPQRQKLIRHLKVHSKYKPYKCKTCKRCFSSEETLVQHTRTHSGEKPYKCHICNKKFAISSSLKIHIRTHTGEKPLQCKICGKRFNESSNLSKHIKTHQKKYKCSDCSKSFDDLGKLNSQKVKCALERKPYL
Protocol: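 Universal 'all 10-mer' protein binding microarrays (Agilent AMADID 015681) probed with GST-tagged S. cerevisiae TFs (full-length or DBD) made by in vitro transcription/translation (PURExpress), about 100-200 nM. Bound TF was detected with fluorescent anti-GST. Each ungapped 8-mer (which stands for itself and its reverse complement) is scored by the PBM enrichment score (E-score), a modified Wilcoxon-Mann-Whitney statistic from -0.5 to +0.5, computed with the Universal PBM Analysis Suite. Scale: above 0.35 generally sequence-specific binding.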

Row | Sequence | PBM E-score
1 | AGCAGTAA | -0.0418
2 | CAGAGCGA | -0.0856
3 | GTGGTTTA | 0.213
4 | AGGGGCGA | -0.0973
5 | TTATTCAA | 0.191
6 | ACATCTAA | -0.0571
7 | GCGCGCCA | 0.0479
8 | CCTCGCAA | 0.0775
9 | AACCCTCG | 0.292
10 | AGTAGAAG | -0.125
11 | AAGACAGT | -0.096
12 | ACAGGGGC | -0.0479
13 | CAGTGGTA | 0.216
14 | CCCCGAAC | 0.108
15 | AATCTGGG | 0.13
16 | ATAAGCGG | -0.0148
17 | GCACCCAC | 0.0806
18 | AAGGGGAA | -0.225
19 | AGCTAGGA | -0.285
20 | AACAGACT | -0.0825
21 | ACTAGGAT | -0.0534
22 | CCCGTACC | 0.119

Row | Sequence | PBM E-score
23 | AACGATCA | -0.00703
24 | AAACTGAG | -0.125
25 | CAGTTAGC | -0.293
26 | GTGGCCGA | -0.00924
27 | AGCAGGAC | -0.0469
28 | GTGGATTA | -0.00084
29 | CACTCAGA | 0.0859
30 | AGTATTTC | 0.156
31 | ATGACCGG | 0.0181
32 | TATGTGGA | -0.0214
33 | GATTCTCC | -0.198
34 | CCCCTGAC | 0.113
35 | AAACTCGT | 0.00536
36 | CCCTTCAA | 0.0124
37 | ACTCGAGC | 0.14
38 | TAGGAGAA | -0.0857
39 | AAATCGGT | -0.0736
40 | CTCCTCGC | -0.326
41 | AGCCGCTC | -0.0957
42 | ATATGCGG | -0.00291
43 | CAAGTACC | 0.263
44 | AGCGCCAT | -0.275

Row | Sequence | PBM E-score
45 | ACGGAGTG | -0.263
46 | AACTCTAG | 0.00907
47 | AGATCCCT | -0.132
48 | AGGTCGGC | 0.0206
49 | AGCCGCTG | -0.182
50 | ACCCGTGA | 0.247
51 | CACCTTCA | 0.0231
52 | ACCACACC | 0.192
53 | CTGCTAAC | -0.0957
54 | AAGGAGGT | 0.0856
55 | GGGACCCC | 0.0441
56 | ACCATCCC | 0.0577
57 | ACTCCAAA | 0.0435
58 | CTTCCCTA | -0.233
59 | AGTTGCCA | -0.0808
60 | CCTGTCGA | -0.184
61 | CTGGTAAC | 0.255
62 | AAAATGAG | -0.078
63 | CACTGTGC | -0.0154
64 | CACAGGGG | 0.00685
65 | AATGACGG | 0.173
66 | TGCGAACA | 0.0594

Row | Sequence | PBM E-score
67 | ATCGCTAG | -0.0377
68 | GGGGAAGA | -0.0556
69 | CTTAAAAC | 0.234
70 | CGCCGGCG | 0.0909
71 | CGCTAGAC | -0.201
72 | CATTAAAG | 0.152
73 | AATCGGGT | 0.311
74 | ACAACACC | 0.0341
75 | GAAATAGA | 0.113
76 | GGCCCCCC | -0.179
77 | GTCTCGCA | -0.168
78 | GAAGTACC | 0.153
79 | CAGTCGTA | -0.0677
80 | CTTCTACC | -0.0853
81 | CCGATGTA | -0.0828
82 | ATAGCCAC | -0.0328
83 | ACATAGGC | -0.103
84 | CCTCCGCG | 0.0795
85 | AGACCGTC | -0.0261
86 | TATAGAAA | 0.175
